The full ranking holds about 33,000 sequences; the median of “E-score (-0.5 to 0.5)” is about -0.032, and the highest 2% start at about 0.36. This is one part of the list.
molecular target: T1, Sko1 (UniProt Q02100); assay: PBM E-score (8-mer binding enrichment) (E-score (-0.5 to 0.5)); higher = stronger / more preferred TF binding; most listed sequences are background and not binding sites; conditions: protein concentration: 200 nM; construct: GST-full length
T1 sequence: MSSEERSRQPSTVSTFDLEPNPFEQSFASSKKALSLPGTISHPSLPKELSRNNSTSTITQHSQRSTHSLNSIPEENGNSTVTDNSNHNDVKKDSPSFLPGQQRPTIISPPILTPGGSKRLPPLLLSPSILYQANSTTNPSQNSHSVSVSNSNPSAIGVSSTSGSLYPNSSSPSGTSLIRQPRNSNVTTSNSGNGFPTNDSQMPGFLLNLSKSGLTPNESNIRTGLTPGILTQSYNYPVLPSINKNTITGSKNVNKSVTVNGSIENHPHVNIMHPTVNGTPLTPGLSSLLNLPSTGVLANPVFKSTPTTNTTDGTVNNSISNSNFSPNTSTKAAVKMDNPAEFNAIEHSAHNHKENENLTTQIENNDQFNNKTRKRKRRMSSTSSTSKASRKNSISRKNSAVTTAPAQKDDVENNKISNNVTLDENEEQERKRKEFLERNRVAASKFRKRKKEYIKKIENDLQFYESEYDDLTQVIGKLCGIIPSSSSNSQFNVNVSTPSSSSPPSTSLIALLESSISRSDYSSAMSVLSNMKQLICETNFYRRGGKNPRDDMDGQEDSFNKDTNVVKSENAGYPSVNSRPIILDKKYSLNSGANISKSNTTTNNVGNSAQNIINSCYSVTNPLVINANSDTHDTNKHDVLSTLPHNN
Summary of the method: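 Each ungapped eight-base word and its reverse complement, pooled, received an E-score from the Universal PBM Analysis Suite. Underlying scans, normalised with masliner, recorded fluorescent anti-GST bound to GST-tagged yeast transcription factors. These were applied at about 100-200 nM to universal all-10-mer Agilent arrays double-stranded by primer extension.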

Sequence | PBM E-score
AGCGGCCG | -0.0793
CGGCTTCC | -0.238
ATCAATCA | 0.12
CGGCTGAA | -0.0511
CACATTGG | 0.0373
GCAAGACC | -0.17
CCTTCGGC | -0.159
ATCTGGAG | -0.26
TAGGTTGA | -0.0514
CCGTGTGC | -0.179
ACTAGTGG | -0.129
AGTCTGTC | -0.179
AGAGACGG | -0.12
AGGTGTGA | -0.0863
AAGAGGGA | -0.207
ATAGCAAC | 0.0401
CGACGCAA | 0.233
TCGCCGCA | -0.201
TAATACCA | 0.162
AGCGTCGG | -0.111
ACAGAGAG | -0.274
AACTTCTA | -0.0142
CCAGTTTA | -0.0951
ACGAGACC | -0.0717
CGCAGGCG | -0.0698

Sequence | PBM E-score
CCATGTTA | 0.0281
AGCGATAG | -0.236
CCTCGTAA | 0.203
TAGGCGAA | -0.0413
AGGACCTA | -0.141
AACAACGA | 0.0961
CAGGGCGG | -0.377
AATGACAA | 0.207
GCGGTCAC | -0.0795
AGGTCACA | -0.122
AACCGCTA | -0.00527
CGTCAAAC | 0.253
ATCAATAA | 0.198
AAGTCGAA | -0.174
CGCTGCGC | -0.217
TCAGTCCA | -0.15
CTTTGAAA | 0.0544
GCTGTCCA | -0.184
AAGCTAGT | 0.0559
AACCAATT | 0.0262
CCAGTTCC | -0.259
TATAGCCA | 0.0755
CGGCGGCA | -0.304
CGGCAGTC | -0.246
ATCTCGCC | -0.104

Sequence | PBM E-score
TCCGGCCA | -0.377
ATACGTTG | 0.391
CGCATCAC | 0.201
CATGTCGA | -0.147
TAATTTGA | 0.0733
AAAGATCT | -0.0411
TACTTATA | -0.0231
AAACCTTT | -0.171
AGCCAACG | 0.0817
CAGAACAA | 0.178
CCTCGAGC | -0.138
AGCGAACT | -0.0233
GACATATC | 0.263
CCCAGGAG | -0.267
CCAGGGCA | -0.325
AGTACTTA | 0.00814
ATAAGGTC | 0.00557
ACGGGATA | 0.0487
GCAACTTA | 0.192
CCCTCGAA | -0.23
CATAGCCG | -0.0709
GTGCTAAA | 0.0598
ACCACTAC | -0.00026
TCGGAAAA | 0.128
AATGACCA | 0.0136

Sequence | PBM E-score
AGTTCGAC | 0.0319
CGTGCACA | 0.0919
ATGCATTC | 0.034
GCTCCGCA | -0.139
ATAGGGCA | -0.34
CCATACCG | -0.102
AACAGCAT | 0.0101
GACCGTCA | 0.14
GCATGACC | -0.00129
AGTACCTA | 0.0825
TATGAATA | 0.175
AGTTAACA | 0.048
GTAAACAC | 0.233
CACTTTCA | -0.0374
GCCGGGAC | -0.368
GACGCCGA | 0.0474
CCACCAGC | -0.0759
AGGAGCGG | -0.3
AAGGCCAC | -0.154
GGAGGTAC | -0.173
ATGCCACA | 0.022
CCCCATTC | -0.205
CGAGTTCC | 0.0628
TAATCATA | 0.243
GAAACTGC | -0.212

Sequence | PBM E-score
CGAATTAC | 0.266
GCCCGCTA | -0.233
TGATGACA | 0.326
TCCCGCGA | -0.104
CGCCGTAG | -0.104
GGCGAACC | -0.25
CAAAACTC | -0.0997
ACTTATGC | 0.0593
GAGATATC | -0.0129
CGATACAA | 0.0458
AGAGAGCA | -0.283
ACCAATAC | 0.0372
TTAACAAA | 0.14
GCGTCGCA | 0.0455
CACAAATA | 0.0596
CGGGTCCA | -0.314
CCGCGCGG | 0.0323
AGGGTGCG | 0.00472
ACAATACA | 0.0868
CAGGCGCC | -0.169
GCCATAAC | -0.0178
AAGCGCAC | -0.136
CTTGATAC | 0.256
GGACACCA | -0.22
GAGCACTC | -0.0169

Sequence | PBM E-score
ATGTTAAG | 0.0699
GGTCTGGA | -0.25
ACGAGCTA | 0.186
GAAATCCC | -0.0633
CCTAAAAC | 0.0414
ATCGCCAC | 0.0139
AGGATTAC | 0.21
CTTCCACA | 0.03
TACTCATA | 0.0882
AACGAAAC | 0.23
GGCGTCAC | 0.274
GGGCCCTA | -0.315
AAACTTTG | 0.141
AACATCTC | 0.0477
GTAACCTA | 0.192
GCTCCAAC | -0.0244
ACGATCAG | 0.0957
TGAAAGCA | 0.0734
CTGAGCCA | -0.178
CCCAGAAG | -0.209
CAACCAGA | -0.0288
AGCCTTGG | -0.118
AGAATACT | 0.141
AACTAGTA | 0.0323
AAGTGTCC | -0.139

Sequence | PBM E-score
AACGAGTT | -0.0345
CAACTAAA | 0.078
GCACTCTA | -0.117
ATGTATGA | 0.288
CCCATTGA | -0.0272
GCCATCAC | 0.09
CGAGGCTA | -0.058
CAAGTAAC | 0.137
AGTCAAAC | 0.0666
GCAAACAA | 0.115
CAACGTTG | 0.307
GGCGTCCA | -0.122
CTCGTTAA | 0.0188
AATTCGGA | -0.0118
ACGTTTAA | 0.406
ATCTTTGC | 0.0693
ACATAGGG | -0.181
GCTTTACA | 0.00439
GATAAACA | 0.0798
CGGATCAG | -0.216
ACGGGTAT | 0.0333
CAACATCG | 0.185

Source: the supplement of paper PMC3334620
